Laboratory results published in the antibiotic and cytotoxicity screens of Wong et al. (2023).
Some of the results follow.

What follows are molecules tested on HSkMC (human skeletal muscle cells) (assay: cytotoxicity call (relative viability < 0.9)). Details: 10 µM.
CCN(CC)CCNC(=O)c1cc(S(C)(=O)=O)ccc1OC.Cl was tested, and the cytotoxicity call was “inactive”.
For C[C@H]1CN([C@@H](C)CO)C(=O)c2cc(NC(=O)Nc3ccc(C(F)(F)F)cc3)ccc2O[C@@H]1CN(C)S(=O)(=O)c1ccc(F)cc1, the cytotoxicity call was “inactive”.
For C[C@H]1CN([C@@H](C)CO)C(=O)Cc2cc(NC(=O)CCCCCC(=O)Nc3ccccc3N)ccc2O[C@H]1CN(C)S(=O)(=O)c1cn(C)cn1, the cytotoxicity call was “inactive”.
In the case of O=C(C[C@H]1CC[C@@H]2[C@H](COC[C@H](O)CN2C(=O)c2ccccc2)O1)N1CCOCC1, the cytotoxicity call is reported as “inactive”.
COc1ccc(S(=O)(=O)Nc2ccc3c(c2)C(=O)N([C@@H](C)CO)C[C@@H](C)[C@@H](CN(C)Cc2ccc4c(c2)OCO4)OCCCC[C@@H](C)O3)cc1 was tested, and the cytotoxicity call was “inactive”.
For C[C@@H]1CN([C@@H](C)CO)S(=O)(=O)c2ccc(-c3cccc(C#N)c3)cc2O[C@@H]1CN(C)C(=O)c1cccnc1, the cytotoxicity call was “inactive”.
C[C@H](CO)N1C[C@H](C)[C@@H](CN(C)Cc2ccc(C(F)(F)F)cc2)Oc2ccc(NC(=O)Nc3ccc(C(F)(F)F)cc3)cc2CC1=O was tested, and the cytotoxicity call was “active”.
With COc1ccc(NC(=O)Nc2ccc3c(c2)C(=O)N([C@H](C)CO)C[C@H](C)[C@H](CN(C)C(=O)Cc2ccccc2)OCCCC[C@H](C)O3)cc1 the cytotoxicity call was “inactive”.
For COc1ccc(S(=O)(=O)N(C)C[C@H]2Oc3ccc(NS(=O)(=O)c4cn(C)cn4)cc3C(=O)N([C@@H](C)CO)C[C@@H]2C)cc1, the cytotoxicity call was “inactive”.
In the case of Cc1noc(C)c1NC(=O)Nc1ccc2c(c1)C(=O)N([C@H](C)CO)C[C@H](C)[C@@H](CN(C)Cc1ccccc1)OCCCC[C@H](C)O2, the cytotoxicity call is reported as “inactive”.
COc1ccc(NC(=O)Nc2ccc3c(c2)C(=O)N([C@@H](C)CO)C[C@@H](C)[C@H](CN(C)C(=O)NC2CCCCC2)OCCCC[C@@H](C)O3)cc1 was tested, and the cytotoxicity call was “inactive”.
For C[C@H](CO)N1C[C@H](C)[C@H](CN(C)C(=O)Nc2ccc(-c3ccccc3)cc2)OCc2ccccc2-c2ccccc2C1=O, the cytotoxicity call was “inactive”.
With COc1ccc(S(=O)(=O)Nc2cccc3c2O[C@H](CN(C)C(=O)NC(C)C)[C@@H](C)CN([C@@H](C)CO)C3=O)cc1 the cytotoxicity call was “inactive”.
In the case of Fc1ccc(-c2nc3c4ccccc4c4ccccc4c3[nH]2)cc1, the cytotoxicity call is reported as “inactive”.
With O=C(C[C@@H]1CC[C@@H]2[C@H](COC[C@@H](O)CN2S(=O)(=O)c2cccc(Cl)c2)O1)NCc1ccncn1 the cytotoxicity call was “inactive”.
With CC1(C)S[C@@H]2[C@H](NC(=O)[C@H](N)c3ccccc3)C(=O)N2[C@H]1C(=O)OCOC(=O)[C@@H]1N2C(=O)C[C@H]2S(=O)(=O)C1(C)C the cytotoxicity call was “inactive”.
COc1ccc(S(=O)(=O)Nc2ccc3c(c2)C(=O)N([C@@H](C)CO)C[C@@H](C)[C@@H](CN(C)C(=O)Nc2ccc4c(c2)OCO4)OCCCC[C@H](C)O3)cc1 was tested, and the cytotoxicity call was “inactive”.
With Cc1noc(C)c1S(=O)(=O)N(C)C[C@H]1OCCCC[C@@H](C)Oc2ccc(NC(=O)Nc3ccc(C(F)(F)F)cc3)cc2C(=O)N([C@@H](C)CO)C[C@H]1C the cytotoxicity call was “inactive”.
C[C@H](CO)N1C[C@H](C)[C@H](CN(C)Cc2ccncc2)Oc2ccc(NC(=O)Nc3cccc4ccccc34)cc2C1=O was tested, and the cytotoxicity call was “inactive”.
For CC1(C)C[C@H](c2nc(-c3ccccc3)cs2)CCS1, the cytotoxicity call was “inactive”.
In the case of CCCCCCCCCCCCCCCC(=O)O[C@@H]1[C@@H](O)[C@@H](O)[C@@H]([C@H](NC(=O)[C@@H]2C[C@@H](CCC)CN2C)[C@H](C)Cl)O[C@@H]1SC, the cytotoxicity call is reported as “inactive”.
C[C@@H]1NC(=O)[C@@]23C(=O)N[C@@H](Cc4ccccc4)[C@@H]2[C@H](C)[C@@]2(C)O[C@H]2[C@H]3/C=C/C/C=C\CNC(=O)[C@@H]2CCCN2C1=O was tested, and the cytotoxicity call was “inactive”.
In the case of C[C@@H]1CCCCO[C@@H](CN(C)CC2CC2)[C@H](C)CN([C@@H](C)CO)C(=O)c2cc(NS(=O)(=O)c3ccc(Cl)cc3)ccc2O1, the cytotoxicity call is reported as “inactive”.
With C[C@H](O)C#Cc1ccc2c(c1)O[C@H](CN(C)C(=O)Nc1ccccc1)[C@@H](C)CN([C@H](C)CO)S2(=O)=O the cytotoxicity call was “inactive”.
For CO[C@@H]1CN(C)C(=O)c2ccc(NC(=O)Nc3ccc(Cl)cc3)cc2OC[C@@H](C)N(C(=O)Nc2c(C)noc2C)C[C@@H]1C, the cytotoxicity call was “inactive”.
With C[C@@H]1CN([C@@H](C)CO)C(=O)c2cc(NC(=O)Nc3ccc(F)cc3)ccc2O[C@@H](C)CCCCO[C@H]1CN(C)Cc1ccc2c(c1)OCO2 the cytotoxicity call was “inactive”.
For CN1C(=O)c2cc(NS(=O)(=O)c3cccc(F)c3)ccc2OC[C@H]2O[C@H](CC(=O)NCCN3CCCCC3)CC[C@@H]21, the cytotoxicity call was “inactive”.
